Laboratory results: ChEMBL document CHEMBL1201862, “PubChem BioAssay data set” (2004)

Each molecule was assayed on NCI-H322M (assay: DTP human tumour cell line panel, 48 h).

Compound | GI50
CC1CCC2C(C(=O)O[C@H]3C4C=CO[C@@H](OC5OC(CO)C(O)C(O)C5O)C4[C@@]4(CO)O[C@@H]34)=CO[C@@H](OC3OC(CO)C(O)C(O)C3O)C12 (stereo not given in full) | inactive: > 10 µM
Cc1c(F)c(N)c2c(=O)cc(-c3ccc(NC(=O)C(N)CCCNC(=N)N)c(F)c3)oc2c1F (stereo not given) | inactive: 14.2 µM
CCOC(=O)C(=C(SC)SC)c1nn2c(=O)cc(C)nc2s1 | inactive: 25.6 µM
Cc1cc(=O)oc2c(OS(C)(=O)=O)c(OS(C)(=O)=O)ccc12 | inactive: > 100 µM
Cc1cc(O)c(C(C)C)cc1NC(=O)Nc1cccc2ccccc12 | inactive: 15.5 µM
N=C(N)SCCCN | inactive: 22.4 µM
Cc1cccc(C2NC(=O)c3ccccc3N2)c1 (stereo not given) | inactive: > 23.6 µM
CC1(C)CC(=O)C=C(NC(=O)c2ccccc2)C1 | inactive: > 100 µM
CC1OC(n2cc(C(F)(F)F)c(=O)[nH]c2=O)C=CC1=O (stereo not given) | inactive: 26.1 µM
Cc1ccc(-n2c(C)n[nH]c2=O)cc1 | inactive: > 100 µM
COc1ccc2c(c1)c(=O)c1c(NCCCN(C)CCCNc3ccc4c(=O)n(CCN(C)C)c(=O)n5c6ccc(OC)cc6c(=O)c3c45)ccc3c(=O)n(CCN(C)C)c(=O)n2c31 | active: < 0.01 µM
CCN(CCN(CC)C(=O)NC)C(=O)NC | inactive: > 100 µM
CC1=C(c2ccccc2)C(c2ccccc2)=C(c2ccccc2)C2(c3ccccc3)C(=O)C(C)CN12 (stereo not given) | inactive: 81.5 µM
O=C(O)/C(=C/c1c(O)ccc2ccccc12)c1csc(-c2nc(/C(=C\c3c(O)ccc4ccccc34)C(=O)O)cs2)n1 | inactive: 14.4 µM
CC12CCC(=O)C=C1CCC1C2C(O)CC2(C)C(c3csc(N)n3)CCC12.O=S(=O)(O)c1ccc(Br)cc1 (stereo not given) | inactive: > 100 µM
CCc1ncnc2cc(OCC3CO3)c(OC)cc12 (stereo not given) | inactive: 13.5 µM
COC(=O)C1Cc2c([nH]c3ccccc23)C(c2ccccc2O)N1 (stereo not given) | inactive: 36.6 µM
COc1cc(Oc2c(O)c(C)c(OC)c(C(C)=O)c2O)c(C(C)=O)c(O)c1C | inactive: 64.9 µM
COc1cc(Br)cc2c1O[C@H]1C(=O)CC3CC21CCN3C (stereo not given in full) | inactive: > 100 µM
CCOC(=O)NC1C2CC(=O)OC(O2)C1OC(C)=O (stereo not given) | inactive: > 100 µM
CCOC(=O)C12OC(OCC)(CC1(OCC)OCC)C1(CC1)C2=O (stereo not given) | inactive: > 100 µM
O=C(CC1C=CCS1(=O)=O)NCc1ccccc1 (stereo not given) | inactive: > 100 µM
Nc1ccc2c(c1)C1=NNC(=O)CC1C2 (stereo not given) | inactive: > 90.6 µM

Compound | GI50
COc1cc(CNc2nc3ccccc3n2Cc2ccccc2)cc(CN2CCOCC2)c1O | inactive: 11.5 µM
CCCCOP1(=O)C=C(C)C(=C(Cl)Cl)C(C)=C1 (stereo not given) | inactive: 17.7 µM
CCOC(=O)C(Cc1ccc(N(CCCl)CCCl)cc1)NC(=O)CCCN1C(=O)CN=C(c2ccccc2)c2cc(Cl)ccc21 (stereo not given) | inactive: 53.2 µM
O=C1N[C@@H]([C@H](CCCCCO)OC(=O)c2ccccc2)CO1 | inactive: > 100 µM
CCOC(=O)C1C(=O)CC(O)(c2ccccc2)C(C(=O)OCC)C1c1ccc(OC)cc1 (stereo not given) | inactive: 77.4 µM
Cc1nc(C)c(N2CCN([N+](=O)[O-])CC2)c(O)n1 | inactive: > 100 µM
COC(=O)CC(NC(=O)OCc1ccccc1)C(C(C)=O)C(=O)OCc1ccccc1 (stereo not given) | inactive: > 31.6 µM
O=C1NC(N2CCOCC2)=N/C1=C\c1cccs1 | inactive: > 100 µM
C/C(=N/NS(=O)(=O)c1ccc(C)cc1)c1cccc[n+]1[O-] | inactive: > 100 µM
Cc1ccc(/C=C/C(=O)c2c([O-])on[n+]2-c2ccccc2)cc1 | inactive: 4.36 µM
COc1ccc(-c2cc(=O)c3c(O)c(OC)c(O)c(OC)c3o2)cc1OC | inactive: > 100 µM
C=CC1ON(Cc2ccccc2)CCc2cc(OC)c(OC)cc21 (stereo not given) | inactive: > 100 µM
O=C(NCCO)c1cc2c(cn1)[nH]c1ccccc12 | inactive: > 100 µM
O=c1cccccc1NCCOCCNc1cccccc1=O | inactive: > 100 µM
COc1cc2c(c(OC)c1OC)C(=O)CC2N (stereo not given) | inactive: > 100 µM
CCCSc1ccc2[nH]c(N3C(=O)/C(=C/c4ccc(O)c(OC)c4)N=C3c3ccccc3)cc2c1 | active: 0.0545 µM
NC(=O)c1nnc2ccc(F)cc2c1N | inactive: > 100 µM
CC(=O)/C(=C/NC(=S)Nc1ccc(Cl)c(Cl)c1)C(=O)Nc1ccccc1C | inactive: 39.2 µM
CC(NC(CC12CC3CC(CC(C3)C1)C2)C(N)=O)c1ccccc1 (stereo not given) | inactive: 32.1 µM
CCCCCCc1cc2cc(C(=O)Nc3ccccc3)c(=N)oc2cc1O | inactive: 6.76 µM
O=C(/C=C/c1ccccc1)c1cc(Br)ccc1O | inactive: 19.9 µM
NC(=O)c1cc2ccccc2o/c1=N/c1ccccc1 | inactive: > 100 µM
Cc1ccc(/C=C2\Cc3cccc(C)c3C2=O)c(C(=O)O)c1 | inactive: > 100 µM

Compound | GI50
O=C1C(O)=C(C(CCc2ccccc2)C2=C(O)C(=O)c3ccccc3C2=O)C(=O)c2ccccc21 | inactive: 52.5 µM
C=C(C)C1CCC2=CC(CC3(C)OC3C3=CC(C(=O)OC)=C(C1)O3)OC2=O (stereo not given) | inactive: > 100 µM
Cn1c2ccccc2c(=O)c2cccc(C(=O)NCC(=O)O)c21 | inactive: > 100 µM
COC(=O)C12C(=O)CC3CCC1C32C(=O)OC (stereo not given) | inactive: > 100 µM
NN/C(=N\S(=O)(=O)c1ccc(-c2ccccn2)s1)Nc1ccc(Cl)cc1 | inactive: > 100 µM
Cc1ccc(S(=O)(=O)N[C@H](C(=O)O)c2ccccc2)cc1 | inactive: > 100 µM
CCOC(=O)c1cc(C2(O)CCN(Cc3ccccc3)C2=O)c(-c2cc(C)no2)[nH]1 (stereo not given) | inactive: > 100 µM
Cc1ccc(NC(=O)c2ccccc2C(=O)O)cc1C | inactive: > 100 µM
N#Cc1ccccc1NC(=O)C(=O)C(C(=O)c1ccncc1)C1OC(=O)c2ccccc21 (stereo not given) | inactive: > 100 µM
C=C1CC[C@@H]2[C@](C)(COC(=O)CCC(=O)O)CCC[C@@]2(C)[C@@H]1CCC1=CC(=O)OC1 | inactive: > 100 µM
CC(NC(=O)C(Cc1ccccc1)NC(=O)C(Cc1ccccc1)NC(=O)OC(C)(C)C)C(=O)OCc1ccccc1 (stereo not drawn) (Boc-Phe-Phe-Ala-OBn; configuration not given here) | inactive: > 100 µM
COC12CCCN1c1ccn(Cc3ccccc3)c(=O)c1C2=O (stereo not given) | inactive: > 100 µM
COC(=O)c1ccc(/N=N/N(C)COc2ccc(Br)cc2)cc1 | inactive: > 100 µM
N#Cc1sc2nc3c(c(-c4ccccc4)c2c1N)CCCC3 | inactive: > 100 µM
CCc1cccc(C)c1NC(=O)CC(=O)NNC(N)=S | inactive: > 100 µM
Cc1cccc2c1C(=O)/C(=C/c1ccccc1C(=O)O)C2 | inactive: > 100 µM
CCOC(=O)/C(=C/NC(=S)Nc1c(CC)cccc1C(C)(C)C)C(=O)c1ccccc1 | inactive: > 100 µM
Cc1nc(N)sc1/N=N/c1cc(Cl)c([N+](=O)[O-])cc1Cl | inactive: 14.4 µM
CCCCCCCCCCCCCCCCCCNc1ccn(C2OC(COP(=O)(O)OCC3OC(n4cc(C)c(=O)[nH]c4=O)CC3F)C(O)C2O)c(=O)n1 (stereo not given) | inactive: 9.44 µM
CC1OC(OC2C(OC(=O)[C@]34CCC(C)(C)C[C@H]3C3=CC[C@@H]5[C@@]6(C)CC[C@H](OC7OC(C(=O)O)C(O)C(O)C7O)C(C)(C)[C@@H]6CC[C@@]5(C)[C@]3(C)C[C@H]4O)OCC(O)C2O)C(O)C(OC2OCC(O)(CO)C2O)C1OC1OCC(O)C(O)C1O (stereo not given in full) | inactive: 3.37 µM
C=CC(C)(C)n1cc(C2=C(O)C(=O)C(c3cn(C(C)(C)C=C)c4ccccc34)=C(OC(C)=O)C2=O)c2ccccc21 | active: 1.1 µM
O=S(=O)(O)c1cc(Nc2ccnc3ccccc23)c2c(S(=O)(=O)O)cc(S(=O)(=O)O)cc2c1 | inactive: > 100 µM
Cc1cc(N(CCC#N)CCC#N)ccc1/C=C(\NC(=O)/C=C/c1ccccc1)C(=O)Nc1ccccc1Cl | inactive: > 100 µM

Compound | GI50
NC(=O)NN=C1Cc2ccccc2C1 | inactive: > 100 µM
C/C(CCOC1CCCCO1)=C(\C)[Si](C)(C)C (stereo not given) | inactive: > 100 µM
Cc1ncc([N+](=O)[O-])n1CCNC(=O)Cn1ccnc1[N+](=O)[O-] | inactive: > 100 µM
COc1cc(/C=C2/SC(c3ccccc3)N(c3cc(Cl)ccc3Cl)C2=O)cc(OC)c1OC (stereo not given) | inactive: > 100 µM
C[C@H](CCC(=O)O)[C@H]1CC[C@@]2(C)[C@@H]3C(=O)C[C@H]4C(C)(C)[C@@H](O)CC[C@]4(C)[C@H]3C(=O)C[C@]12C | inactive: > 100 µM
Cc1ccc(S(=O)(=O)C2=c3ncccc3=C3C(=O)c4ccccc4C(=O)C32)cc1 (stereo not given) | inactive: > 83 µM
Cc1ccccc1N/N=C1\C(=O)Nc2ccccc21 | inactive: > 100 µM
COC(=O)c1c(O)ccc2c1c1c(n2Cc2ccccc2Cl)C(=O)c2ccccc2C1=O | inactive: 14.4 µM
Cc1ccc(N(C)S(=O)(=O)c2ccccc2[N+](=O)[O-])cc1 | inactive: > 100 µM
CN(C)CC/C(=N\Nc1ccccc1)c1ccccc1 | inactive: 26.5 µM
CSc1ccc(C2C(Cl)C(=O)N2NC(=O)c2c(Cl)c(Cl)c(Cl)c(Cl)c2-c2nc3ccccc3[nH]2)cc1 (stereo not given) | inactive: 30.4 µM
CC1(C)OCC(CO)(Nc2nc(N3CC3)nc(N3CC3)n2)CO1 | inactive: 22.1 µM
CCC(C)(O)c1cn(-c2ccc(S(=O)(=O)O)cc2)nn1 (stereo not given) | inactive: > 100 µM
Cc1ccccc1/C=C/C(=O)c1ccccc1 | inactive: 18.7 µM
CCO[C@@H]1OC(=O)[C@](C)(C(C)=O)[C@@H]1C | inactive: 52.7 µM
N#CC1Sc2ccccc2-n2cccc21 (stereo not given) | inactive: > 100 µM
Cc1n[nH]c(C(F)(F)F)c1/N=N/N1CCOCC1 | inactive: 15.8 µM
C/C(=N\NC(=S)Nc1ccc([N+](=O)[O-])cc1S(=O)(=O)O)c1ccccn1 | inactive: 28.9 µM
CN(C)CCNC(=O)C1COc2cc(-c3cc(=O)c4ccccc4o3)ccc2O1 (stereo not given) | inactive: 20.7 µM
COc1cc([C@@H]2c3cc4c(cc3C[C@@H]3COC(=O)C32)OCO4)cc(OC)c1O (stereo not given in full) | active: 0.064 µM
Nc1cc([N+](=O)[O-])ccc1C(=O)N1CCC[C@H]1CO | inactive: > 100 µM

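Grown in 96-well plates, cells were treated for 48 hours with each compound at five concentrations. Insufficient inhibition: endpoint recorded as highest concentration tested. The concentration for 50% growth inhibition is given as GI50.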 The source made the active and inactive calls. Cut-off read from the data, not from the text of the source: active = GI50 up to about 1.1 µM and inactive = higher. Peptide text beside a SMILES is read from it. * marks the point of attachment. Boc = CC(C)(C)OC(=O)*; OBn = c1ccc(CO*)cc1
